# Among all 360,000 compounds or so, about 660 (0.18%) were called active. The shares of active, inactive and inconclusive entries below differ from those in the screen. The call rests on the fitted dose curve; in most records, active means well fitted inhibition curve with a large enough effect; inconclusive means small, poorly fitted or top-dose-only effect; inactive means no such curve, though single readings can be large or run the other way. No potency is given beside an inconclusive call; the fits are too rough.
# Target: Rap guanine nucleotide exchange factor 4 (Homo sapiens) (UniProt Q8WZA2)
# Sequence of UniProt Q8WZA2 (Q8WZA2 whole entry, looked up): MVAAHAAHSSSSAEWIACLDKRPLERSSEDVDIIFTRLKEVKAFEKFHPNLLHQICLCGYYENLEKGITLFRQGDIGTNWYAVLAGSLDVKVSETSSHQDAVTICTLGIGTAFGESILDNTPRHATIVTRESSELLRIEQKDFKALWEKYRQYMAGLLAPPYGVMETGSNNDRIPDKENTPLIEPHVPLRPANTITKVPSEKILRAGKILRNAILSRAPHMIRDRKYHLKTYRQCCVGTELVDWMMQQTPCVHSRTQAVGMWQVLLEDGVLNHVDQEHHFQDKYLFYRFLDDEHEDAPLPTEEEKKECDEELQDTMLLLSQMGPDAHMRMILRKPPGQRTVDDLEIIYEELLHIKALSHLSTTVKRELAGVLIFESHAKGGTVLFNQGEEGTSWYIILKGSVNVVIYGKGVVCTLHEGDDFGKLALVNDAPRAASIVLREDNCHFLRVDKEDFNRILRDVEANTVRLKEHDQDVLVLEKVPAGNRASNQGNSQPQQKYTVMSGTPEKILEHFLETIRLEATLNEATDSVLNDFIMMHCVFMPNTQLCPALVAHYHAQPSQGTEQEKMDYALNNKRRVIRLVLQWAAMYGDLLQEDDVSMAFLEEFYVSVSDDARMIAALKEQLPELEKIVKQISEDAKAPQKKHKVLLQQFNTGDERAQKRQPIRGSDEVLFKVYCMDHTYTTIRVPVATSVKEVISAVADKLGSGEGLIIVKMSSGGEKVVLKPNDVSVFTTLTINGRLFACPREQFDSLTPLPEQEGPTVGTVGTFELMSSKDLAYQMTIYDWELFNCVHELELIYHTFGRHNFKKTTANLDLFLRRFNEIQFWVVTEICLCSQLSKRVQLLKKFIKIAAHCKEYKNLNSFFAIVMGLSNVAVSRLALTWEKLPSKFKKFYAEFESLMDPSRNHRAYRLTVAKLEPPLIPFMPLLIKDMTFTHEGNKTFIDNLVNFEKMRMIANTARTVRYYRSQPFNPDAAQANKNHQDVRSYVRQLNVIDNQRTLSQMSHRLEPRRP
# Assay: qHTS for Antagonist of cAMP-regulated guanine nucleotide exchange factor 2 (EPAC2): primary screen; further: nearly all actives have a fitted effect of over 45% in size
# Conditions: EPAC2 GEF exchange of Rap1B-BODIPY-GDP, fluorescence; activity, negative = inhibition: at 114 µM (top of the series) unless noted
# On the % scale 0 is the no-effect control and ±100 the full control effect; potency means the concentration at half of the fitted maximal effect; tags describe the fitted curve by direction and shape.
SMILES,Potency,"activity, negative = inhibition"
Cn1c(SCc2ccccc2F)nnc1-c1cnccn1,inactive,–
COc1cc(/C=C/c2sc3ccccc3[n+]2CCCS(=O)(=O)[O-])ccc1O,"inconclusive [inhibitor, partial curve]",–
COc1ccn(C2CCCCO2)c(=O)n1 (stereo not drawn),inactive,–
Cc1ccc(C(CCN(Cc2ccccc2)C(=O)c2ccco2)c2ccco2)cc1 (stereo not drawn),"inconclusive [inhibitor, partial curve]",–
CN(C)Cc1c(C(C)(C)O)[nH]c2ccc(C(F)(F)F)cc12,inactive,–
O=S(=O)(c1ccc2c(c1)CCCN2)N1CCCC2CCCCC21 (stereo not drawn),"inconclusive [inhibitor, partial curve]",–
Cc1onc(-c2c(F)cccc2Cl)c1C(=O)OCC(=O)N(C)c1ccccc1,"inconclusive [inhibitor, full curve]",–
CCCC(=O)Nc1nnc(CCOC)s1,"inconclusive [inhibitor, partial curve]",–
COc1ccc(NC(=O)CSc2nc3ccccc3c(=O)n2CCCO)cn1,"inconclusive [inhibitor, single point]",–
CC(C)C1Nc2c(O)cc(Cl)c([N+](=O)[O-])c2C2C=CCC21 (stereo not drawn),"inconclusive [inhibitor, partial curve]",–
CCOC(=O)c1c(N2C(=O)Nc3ccccc3N2O)sc2c1CCCC2,"inconclusive [inhibitor, single point]",–
CC1=CC2=NC(=O)/C(=C/c3coc4ccc(Cl)cc4c3=O)C(=N)N2O1,inactive,–
CCOC(=O)[C@]12CCCC=C1N(CCC1=CCCCC1)C(=O)[C@H](CC(=O)NCc1ccc(C)o1)C2,"inconclusive [inhibitor, full curve]",–
Cc1[nH]c2ccccc2c1N=Nc1cccc(C(=O)O)c1,inactive,–
Cc1cc(C)cc(Nc2cc(=O)n(C3CCCCC3)c(=O)[nH]2)c1,inactive,–
Cc1ccc(S(=O)(=O)N2CCC[C@H]2C(=O)OCCN2C(=O)c3ccccc3C2=O)cc1,inactive,–
O=C(N/N=C/c1cc(Cl)cc([N+](=O)[O-])c1O)NC12CC3CC(CC(C3)C1)C2,"inconclusive [inhibitor, partial curve]",–
COc1ccc2c(ccn2S(=O)(=O)c2ccccc2)c1,"inconclusive [inhibitor, full curve]",–
Cc1ccc(S(=O)(=O)N2[C@@H](Cc3ccccc3)CO[C@H]2CC(=O)c2cccs2)cc1,"inconclusive [inhibitor, partial curve]",–
COC(=O)c1ccccc1NC(=O)c1noc2c1CCC2,inactive,–
Cc1ccccc1-n1c(SCC(=O)Nc2ccccc2Cl)nc2n[nH]c(C)c2c1=N,"inconclusive [inhibitor, full curve]",–
C[C@H](NC(=O)c1nc[nH]c1C(=O)NCc1ccccc1)C(=O)OCc1ccccc1,"inconclusive [inhibitor, partial curve]",–
C/C=C(/C(=C/C)c1ccc(O)cc1)c1ccc(O)cc1,"inconclusive [inhibitor, partial curve]",–

SMILES,Potency,"activity, negative = inhibition"
CCOC(=O)C(CC)(CC)C(=O)/C=C/c1ccc(OC)cc1,"inconclusive [inhibitor, partial curve]",–
CCc1ccc(Nc2n[n+](-c3ccccc3)c(-c3cc(OC)c(OC)cc3Br)s2)cc1,"inconclusive [inhibitor, single point]",–
CCCCc1nnc(SCc2ccc(OCC)cc2)n1N,"inconclusive [inhibitor, single point]",–
COc1ccc(/C=N/NC(=O)c2ccn[nH]2)cc1CSc1ccccn1,"inconclusive [inhibitor, single point]",–
O=C(O)CCCc1ccc2ccc3cccc4ccc1c2c34,"inconclusive [inhibitor, partial curve]",–
CC(C(=O)N(C)C1CCS(=O)(=O)C1)N1C(=O)/C(=C/c2ccc(F)cc2)SC1=S (stereo not drawn),inactive,–
Cc1ccc(NC(Cc2cc(C)no2)c2ccccc2)cc1 (stereo not drawn),"inconclusive [inhibitor, partial curve, poor fit]",–
COc1nc(C)cc(C)c1S(=O)(=O)c1ccc(Cl)cc1,"inconclusive [inhibitor, partial curve]",–
Cc1nn(CCc2nn[nH]n2)c2nc(-c3ccc(Br)cc3)cc(C(F)(F)F)c12,active: 31.6 µM,–
COc1ccc(C2/C=C\CN(C(=O)c3ccc(C)cc3)CC(=O)N2Cc2ccc(F)cc2)cc1 (stereo not drawn),"inconclusive [inhibitor, full curve, poor fit]",–
N#Cc1c(N2CCCC2)nc(N)c2c(N)nc(N3CCCC3)cc12,"inconclusive [inhibitor, partial curve]",–
CCCCc1ccc(-n2c(Cc3cccs3)n[nH]c2=S)cc1,"inconclusive [inhibitor, partial curve]",–
O=c1c2ccccc2oc2ccc(Oc3ccccc3)cc12,"inconclusive [inhibitor, full curve, poor fit]",–
COC(=O)C1=CN(Cc2ccccc2)C=C(C(=O)OC)C1c1ccc(OC)c(OC)c1,"inconclusive [inhibitor, partial curve]",–
CCCCC(=O)N(C)c1c(CC)nc2c(OCc3cccc(Cl)c3)cccn12,"inconclusive [inhibitor, full curve, poor fit]",–
CC(C)c1ccc(S(=O)(=O)/N=C2\C=C(NS(=O)(=O)c3ccccc3)C(=O)c3ccccc32)cc1,"inconclusive [inhibitor, partial curve]",–
CCCCn1c(=O)nc2n(-c3ccc(OC)cc3)c3ccccc3cc-2c1=O,"inconclusive [inhibitor, single point]",–
C[C@H]1Oc2ccccc2C(=O)C1C(=O)c1ccccc1 (stereo partly drawn),"inconclusive [inhibitor, single point]",–
Cc1ccc(-c2cc(N)nc(-c3ccccc3)c2)cc1,"inconclusive [inhibitor, partial curve]",–
CC(=O)c1cnc(Nc2cccc(C)c2)s1,"inconclusive [inhibitor, partial curve, poor fit]",–
COc1cccc(NCc2cc3c(C(C)(C)C)nn(-c4ccccc4)c3[nH]c2=O)c1,"inconclusive [inhibitor, full curve, poor fit]",–
O=S(=O)(c1ccc2ccccc2c1)N1CCCCCC1,"inconclusive [inhibitor, full curve]",–
COc1ccc(NS(=O)(=O)c2cccc(C(=O)Nc3ccccc3C(=O)O)c2)cc1,"inconclusive [inhibitor, partial curve]",–

SMILES,Potency,"activity, negative = inhibition"
COc1cc2c(cc1OC)C(c1c(Cl)cccc1Cl)=NCC2,"inconclusive [inhibitor, full curve]",–
COc1ccc(Nc2nc(-c3sc(C)nc3C)cs2)c(OC)c1,"inconclusive [inhibitor, partial curve]",–
O=S1(=O)CCOC[C@H](Cc2ccccc2)N1Cc1ccccc1,"inconclusive [inhibitor, single point]",–
S=C(c1ccc(-c2cccc(Cl)c2)o1)N1CCCCC1,"inconclusive [inhibitor, partial curve, poor fit]",–
CCOc1ccccc1NC(=O)COc1ccc2c(c1)OCO2,"inconclusive [inhibitor, partial curve, poor fit]",–
COc1ccc(N=Cc2c(O)ccc3ccccc23)cc1,"inconclusive [inhibitor, single point]",–
CC(Oc1ccc(Cl)cc1Cl)C(=O)N(C)c1ccccc1 (stereo not drawn),"inconclusive [inhibitor, single point]",–
O=C1c2cccc3c(N4CCCCC4)ccc(c23)C(=O)N1CCO,inactive,–
O=C(Nc1cc(-c2ccccc2)sc1C(=O)O)c1cccc(F)c1,"inconclusive [inhibitor, partial curve]",–
CCCCCCn1c(SCC(=O)OC)nc2c1c(=O)[nH]c(=O)n2C,inactive,–
COc1ccccc1-c1oc2ccccc2c1-c1ccccc1OC,–,inconclusive: -30.5% [inhibitor]
COC(=O)C[C@@H]1OC[C@H](C(C)C)N1S(=O)(=O)c1ccc(C)cc1,inactive,–
CCOC(=O)C(C(=O)Cc1ccccc1)c1ccccc1 (stereo not drawn),inactive,–
CCCOc1ccc(C(=O)CCNc2cccc(Cl)c2)cc1,"inconclusive [inhibitor, single point]",–
CCCCNc1c(-c2ccc(OC)c(Sc3ccc(OC)cc3)c2)nc2cnccn12,"inconclusive [inhibitor, partial curve]",–
Cc1ccc(NC(=O)C2(C)CCN2CCc2ccccc2)cc1 (stereo not drawn),"inconclusive [inhibitor, partial curve]",–
COc1ccccc1CNC(=O)C(NC(=O)C1CCCCC1)C(C)C (stereo not drawn),"inconclusive [inhibitor, single point]",–
CCOC(=O)c1c(C)[nH]c(C)c1S(=O)(=O)NCCc1ccc(SC)cc1,"inconclusive [inhibitor, single point]",–
c1ccc(NNC2=NCCS2)cc1,inactive,–
O=C(Nc1ccc(F)c(Cl)c1)c1cc(C2CCCCN2C(=O)c2ccccc2)on1 (stereo not drawn),inactive,–
COc1ccccc1NC(=O)c1cc(Br)ccc1Cl,"inconclusive [inhibitor, partial curve]",–
COc1cc(S(=O)(=O)NC2CCCCC2C)ccc1F (stereo not drawn),"inconclusive [inhibitor, partial curve]",–
